The source of these data is the supplement of paper PMC10338343.

± gives the standard deviation. Whole data set: some 6,600 sequences, median “pre-steady-state target cleavage rate” near 0.07, cut for the highest 2% near 0.72. This is a selection; strong and weak results do not stand in their true shares. Bounds are passed on as bounds.
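Further: 1 nM active piRISC with 0.1 nM target library at 33 °C single turnover.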

This experiment relates to MIWI (PIWIL1) piRISC loaded with Kctd7 piRNA (30 nt). As to the kind of experiment: pre-steady-state target cleavage rate (min^-1); MIWI and MILI are mouse PIWI proteins and EfPiwi is from a freshwater sponge; tags in brackets are library labels; higher = faster piRNA-guided slicing of the target. Conditions: guide: Kctd7 piRNA 5'p-UGUUAAUCUCUCAGAGAAGGUGACAGUGAU; auxiliary factor: 500 nM mouse GTSF1. Summed up: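 Three pooled Cleave-'n-Seq trials supplied the data, with k3 capped at 0.0001 min^-1. In each, […] transcribed, DNA-blocked target RNA library and 1 nM active affinity-purified piRISC with one synthetic guide reacted in HEPES–potassium acetate buffer at 33 °C for 0–8 or 0–960 min, with or without 500 nM GTSF1 partner protein. Uncleaved targets were sequenced and normalised to depth and to weakly complementary targets. A burst-and-steady-state fit provided the pre-steady-state cleavage rate.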
As to UAGACUCGUCACCUUCUCUGAGAGAUUAACA, the “pre-steady-state target cleavage rate” value worked out at 0.687 ± 0.041.
The result for UAGACUGUCACCUUCUCAGAGAGAUUAAGA reads 0.101 ± 0.014; that for UUCACUGUGACCUUCUCUGAGAGAUUUACA, 0.214 ± 0.026.
Regarding UAGUGUGUGACCUUCUCUGAGUGAUUAACA, the “pre-steady-state target cleavage rate” value was 0.0123 ± 0.004.
For UACACUGUCACCUUCUCAGAGAGAUAUUGA, the “pre-steady-state target cleavage rate” value worked out at 0.0336 ± 0.016.
UAGUGACUCACCUUCUGUGAGUGAUUAACA: the “pre-steady-state target cleavage rate” value came out at 0.0083 ± 0.0037.
The result for UACUCUGUCACCUUCUCUGAGACAUUAACA reads 0.309 ± 0.025; that for UACACUGUCACCUUCCUCUGAGAGAUUAACA, 0.375 ± 0.024.
Regarding AUCUCUGUCACCUUCUCUGAGACAUUAACA, the “pre-steady-state target cleavage rate” value stood at 0.292 ± 0.022.
For the sequence AUCACUGUCACCUUCUCUGGAGAUUAACA, the “pre-steady-state target cleavage rate” value was found to be 0.294 ± 0.022.
The result for AUCAGUGUCACCUUCUCUGACAGAUUAACA reads 0.468 ± 0.028; that for UAGACUGUCAGCUUCUCUGAGAGAUAAACA, 0.168 ± 0.022; that for UAGUGACAGACCUUCUCAGAGACAUUAACA, 0.00533 ± 0.0032.
The result for UAGUGACACAGGUUCUCUGAGAGAUUAAGA reads 0.00292 ± 0.0026.
The result for UUCACUGUCACCUUCUCUGAGAGAUUCAACA reads 0.561 ± 0.08.
For AUCAGUGUCACCUUCUCUGAGAGAUUAACA, the “pre-steady-state target cleavage rate” value was determined as 0.633 ± 0.028.
The result for UAGUGUGACACCUUCACUGAGAGAUUAACA reads 0.36 ± 0.018.
In the case of UUCACUGUCACCUUCUCUGAGAGUUAAACA, the “pre-steady-state target cleavage rate” value is 0.183 ± 0.03.
On to UAGUGACAGUCCUUGUCUGAGACAUUAACA, for which the “pre-steady-state target cleavage rate” value turned out to be 0.00922 ± 0.0033.
The result for UAGUGACAGUGGUUCUGUGAGUGAUUAACA reads under 0.0001; that for UAGUGUGUCACCUUCUCUGAGCAGAUUAACA, 0.00638 ± 0.0046; that for UAGUGGGUCACCUUCUCUGAGAGAUUAACA, 0.564 ± 0.027.
On to UAGUCUGUGACCUUCUCUGACAGAUUAACA, for which the “pre-steady-state target cleavage rate” value was 0.112 ± 0.013.
The result for UACACUGUCACCUGUCUCUGAGAGAUUAACA reads 0.583 ± 0.032; that for UAGUGAGUCACCAUCUCUGAGAGAUUUUGA, 0.0112 ± 0.0056; that for UAGUGACUCACCUUCUCUGAGAGUAUAUGA, 0.00493 ± 0.0034.
The result for AUCACUGUCACCUUCUCUGAGUGAUAAACA reads 0.0215 ± 0.0056; that for UUCACUGUCACCUUCUCUGAGAGAUUUAACA, 0.498 ± 0.055.
As to UUCACUGUCACCUUCUCUGAGAGAUUAGCA, the “pre-steady-state target cleavage rate” value worked out at 0.259 ± 0.035.
UAGUGUGUCACCUUCUCUGAGAGAUUGACA: the “pre-steady-state target cleavage rate” value turned out to be 0.203 ± 0.037.
In the case of UAGUGACUCACCUUCUCUGAGAGAUUCACA, the “pre-steady-state target cleavage rate” value is 0.633 ± 0.12.
As to UACUCUGUCACCAUCUCUGAGAGAUUAACA, the “pre-steady-state target cleavage rate” value is 0.69 ± 0.036.
The result for UAGUGACUCACCUUCUCUGCGAGAUUAACA reads 0.302 ± 0.034; that for UACACUGUCACCUUCUCUGACAGAUUAUCA, 0.0418 ± 0.0092; that for UAGUCAGUCACCUUCUCUCAGAGAUUAACA, 0.125 ± 0.012.
Turning to UACUGAGUCACCUUCUCUGAGAGAUAUUGA, the “pre-steady-state target cleavage rate” value was determined as 0.0546 ± 0.011.
The result for AUCACUGUCACCUUCACUGUGAGAUUAACA reads 0.156 ± 0.011; that for UAGUCUGUCACCUUCUCUGAGAGAAUAACA, 0.365 ± 0.064.
The result for UAGUCUGUCACCUACUCUGAGAGAUUAUGA reads 0.0264 ± 0.0064.
Turning to UAGACUGUCUCCUUCUCUCAGAGAUUAACA, the “pre-steady-state target cleavage rate” value came out at 0.0738 ± 0.0058.
The result for UUCACACUCACCUUCUCUGAGAGAUAUUGA reads 0.0619 ± 0.018; that for UAGUGUGUGACCUUGUCUGAGAGAUUAACA, 0.14 ± 0.021.
As for AUCACUGUCACCUUCUCUGAGAGAUCUAACA, the “pre-steady-state target cleavage rate” value was 0.358 ± 0.058.
The result for UAUACUGUCACCUUCUCUGAGAGAUUAACA reads 0.767 ± 0.047.
The result for UAGUCUGGCACCUUCUCUGAGAGAUUAACA reads 0.177 ± 0.035.
As to UAGUGAGUCACGUUCUCUGUGAGAUUAACA, the “pre-steady-state target cleavage rate” value stood at 0.18 ± 0.016.
The result for UAGUGAGUCACCUUCUCUGAGAGAUGUAACA reads 0.388 ± 0.047; that for UAGUGACACACCUUCAGAGAGAGAUUUUGA, 0.00535 ± 0.0047; that for UAGUGAGUCAGCUUCUCUGAGAGAUAAACA, 0.339 ± 0.028.
Regarding UAGUGUGUCACCGUCUCUGAGAGAUUAACA, the “pre-steady-state target cleavage rate” value is 0.396 ± 0.042.
The result for UAGUGUGUCACCUUCUCUGAGAGAAUUACA reads 0.173 ± 0.044; that for UUCAGUGUCACCUUCUCUGAGAGAUUAAGA, 0.126 ± 0.029; that for UAGUGUGUCACCUUCUCUGAGACAUUAACA, 0.218 ± 0.028.
With UUCAGUGUCACGUUCUCUGAGAGAUUAACA, the “pre-steady-state target cleavage rate” value is 0.599 ± 0.029.
The result for UAGUGACAGUGGAAGAGACAGUGUUUAACA reads under 0.0001; that for UAGUGAGUCACCAACUCUGAGAGAUUAAGA, 0.0223 ± 0.0065; that for UAGUGUCUCACCUUCUCUGAGAGAAUAACA, 0.26 ± 0.04.
Regarding UAGUGUGUCACCUUCUCUGAGUGAUAAACA, the “pre-steady-state target cleavage rate” value was determined as 0.0164 ± 0.0068.
As to UAGUGAGUCACGUUCUCUGAGAGAUUUUGA, the “pre-steady-state target cleavage rate” value came out at 0.00437 ± 0.0032.
The result for UAGUGAGUCACCUUCUCACAGAGAUUAACA reads 0.0117 ± 0.0028; that for UAGUGACAGUGGAACUCUGAGAGAUUAAUCA, under 0.0001.
For UACACUGUCUCCUUCUCUGAGAGAUUAACA, the “pre-steady-state target cleavage rate” value came to 0.599 ± 0.034.
The result for UAGUGUGUCACCUUCUCUGAGAGACUAACA reads 0.288 ± 0.055; that for UAGACUGUCACCUUCUGUGAGAGAUUAACA, 0.648 ± 0.038.
The result for UACACUGUCAGCUUCUCUCAGAGAUUAACA reads 0.0908 ± 0.01.
The result for UAGUGUGUCACCAUUCUCUGAGAGAUUAACA reads 0.508 ± 0.036; that for AUCACUGUCACCUUCUCUGAGUGAUUAACA, 0.0525 ± 0.0086; that for UAGUGACUCACCUUCUCUGAGACAUUAUCA, 0.0265 ± 0.0081.
With AUCACUGAGUCCUUCUCUGAGAGAUUAACA, the “pre-steady-state target cleavage rate” value was determined as 0.489 ± 0.035.
On to AUCACUGUCACCUUCUCUGAGAGAUUAAGA, for which the “pre-steady-state target cleavage rate” value came out at 0.183 ± 0.026.
As to UACAGUGUCACCUUCUCUGAGAGAAUAACA, the “pre-steady-state target cleavage rate” value is 0.479 ± 0.09.
Turning to UAGUGACUCACCGUUCUCUGAGAGAUUAACA, the “pre-steady-state target cleavage rate” value was 0.16 ± 0.019.
The result for UAGUGUUCACCUUCUCUGAGAGAUUAACA reads 0.454 ± 0.026; that for AACACUGUCACCUUCUCUGAGAGAUUAUCA, 0.303 ± 0.037; that for UAGUGAGUGUCCUUCUCUGAGAGAUUAUGA, 0.00701 ± 0.003.
The result for AUCACUGUCAGCUUCUCUGAGAGAUUAUCA reads 0.251 ± 0.034; that for UAGUGACACACCUUGCUCUGAGAGAUUAACA, 0.0571 ± 0.011.
With UAGACGGUCACCUUCUCUGAGAGAUUAACA, the “pre-steady-state target cleavage rate” value is 0.671 ± 0.028.
The result for UAGUGACACAGCUUCUCUGAGUGAUUAACA reads 0.00956 ± 0.0033; that for AUCACUGACACCUUCUCUGAGACAUUAACA, 0.206 ± 0.025.
The result for UAGUGACACACGCUUCUCUGAGAGAUUAACA reads 0.189 ± 0.021.
As for AUCACUGUCACCUUCUCUGAGACAUUAUCA, the “pre-steady-state target cleavage rate” value is 0.0223 ± 0.0079.
The result for UUCACUCACACCUUCUCUGAGAGAUUAUGA reads 0.1 ± 0.023.
Consider UUCACUGUCAGCUUCUCUGAGAGAAUAACA, for which the “pre-steady-state target cleavage rate” value is 0.229 ± 0.037.
Regarding UAGUGUGUCGCCUUCUCUGAGAGAUUAACA, the “pre-steady-state target cleavage rate” value was determined as 0.496 ± 0.045.
With UACAUCUGUCACCUUCUCUGAGAGAUUAACA, the “pre-steady-state target cleavage rate” value stood at 0.66 ± 0.027.
Regarding UACACUGUCACCUUCUCUGAGAGAUAUAGA, the “pre-steady-state target cleavage rate” value stood at 0.0276 ± 0.012.
The result for UAGUGACUACACCUUCUCUGAGAGAUUAACA reads 0.565 ± 0.033.
For UAGUGUGUGACCUUCUCUGAGAGAUUAACA, the “pre-steady-state target cleavage rate” value is 0.562 ± 0.034.
Turning to UACACUGUCACCUUCUCUGAGUCAUUAACA, the “pre-steady-state target cleavage rate” value stood at 0.00872 ± 0.0023.
Consider UUCACUGUCACCUUCUCUGAGAGAUAUAGA, for which the “pre-steady-state target cleavage rate” value was found to be 0.0837 ± 0.021.
UUCAGUGUCACCUUCUCUCAGAGAUUAACA: the “pre-steady-state target cleavage rate” value came to 0.0996 ± 0.0064.
